# Results: the supplement of paper PMC8728848
# The list shows a part of the results.
# B1: B1567 (Bifidobacterium sp) (protein)
# chain: MKFTTAKKAVALTGAVAMLVSVAACGSDSGKSSQPAQDSDVKEITVWAWEPSLTQVAKDFEKETGIKVDLKNVGTNTKEYTQLDNAIEAGSGAPDVAQVEYYAVPQYAIKGNLLDITDKTSGYKDFYTPGPWASVQFAGKVYGLPMDSGPMAFFYNKEVFDKAGVDAEQIKTWDQYYDAAKKIHALGDNYYITSDTGDAGFFDSMTWLAGAKPFQTSSDGSEVTVNLTEDKGVKTFTDFWQKLLDEGLLDTKTAGWSEDWFKGMVDGTIASLFTGAWMPANLANSAADGAGKWRVTQMPTADGSTTNSENGGSSLAVLASTKKADAAYQFIEYANHGAGVATRVAGGAFPADKASLEKDSFKNATTVKNADGQDVDYFGGQKYNEVLAQAAENVSSGYQFLPFEVKARTIFGDYFGKSYTGDQKLSDGVAAWQKALQDYGKDQGFTVK
# Key:
# Test in all cases: glycan array binding signal (z-score within array); higher = stronger binding
# Conditions in all cases: glycan notation: IUPAC condensed, linker removed
# [1] = biological target: Gal(b1-4)GlcNAc(b1-6)GalNAc
# In short: (§1)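 Glycan array data came from 3228 arrays in the Consortium for Functional Glycomics database, and only arrays with an available protein sequence were kept. Glycan names were put into IUPAC-condensed notation, and columns mapping to the same glycan were averaged. The binding signal is a within-array Z-score, averaged across arrays of one protein sequence run at different concentrations or buffers and across linkers. A negative Z-score can be read as non-binding.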
# [2] = biological target: Gal(b1-4)GlcNAc(b1-6)[Gal(b1-3)]GalNAc
# In short: as §1
# [3] = biological target: Gal(b1-4)GlcNAc(b1-6)[Gal(b1-4)GlcNAc(b1-3)]GalNAc
# In short: as §1
# Gal(b1-4)GlcNAc6P = biological target: Gal(b1-4)GlcNAc6P
# In short: as §1
# Gal(b1-6)Gal = biological target: Gal(b1-6)Gal
# In short: as §1
# Gal3S(b1-3)GalNAc = biological target: Gal3S(b1-3)GalNAc
# In short: as §1
# Gal3S(b1-3)GlcNAc = biological target: Gal3S(b1-3)GlcNAc
# In short: as §1
# [4] = biological target: Gal3S(b1-3)[Fuc(a1-4)]GlcNAc
# In short: as §1
# Gal3S(b1-4)Glc = biological target: Gal3S(b1-4)Glc
# In short: as §1
# Gal3S(b1-4)Glc6S = biological target: Gal3S(b1-4)Glc6S
# In short: as §1
# Gal3S(b1-4)GlcNAc = biological target: Gal3S(b1-4)GlcNAc
# In short: as §1
# [5] = biological target: Gal3S(b1-4)[Fuc(a1-3)]Glc6S
# In short: as §1
# [6] = biological target: Gal3S(b1-4)[Fuc(a1-3)]GlcNAc
# In short: as §1
# [7] = biological target: Gal3S(b1-4)[Fuc(a1-3)]GlcNAc6S
# In short: as §1
# Gal3S4S(b1-4)GlcNAc = biological target: Gal3S4S(b1-4)GlcNAc
# In short: as §1
# Gal3S6S(b1-4)GlcNAc = biological target: Gal3S6S(b1-4)GlcNAc
# In short: as §1
# Gal3S6S(b1-4)GlcNAc6S = biological target: Gal3S6S(b1-4)GlcNAc6S
# In short: as §1
# Gal4S(b1-4)GlcNAc = biological target: Gal4S(b1-4)GlcNAc
# In short: as §1
# Gal4S6S(b1-4)GlcNAc = biological target: Gal4S6S(b1-4)GlcNAc
# In short: as §1
# Gal6P(b1-4)GlcNAc = biological target: Gal6P(b1-4)GlcNAc
# In short: as §1
# Gal6S(b1-3)GlcNAc = biological target: Gal6S(b1-3)GlcNAc
# In short: as §1
# Gal6S(b1-3)GlcNAc6S = biological target: Gal6S(b1-3)GlcNAc6S
# In short: as §1
# Gal6S(b1-4)Glc = biological target: Gal6S(b1-4)Glc
# In short: as §1
# Gal6S(b1-4)Glc6S = biological target: Gal6S(b1-4)Glc6S
# In short: as §1
# Gal6S(b1-4)GlcNAc = biological target: Gal6S(b1-4)GlcNAc
# In short: as §1
# Gal6S(b1-4)GlcNAc6S = biological target: Gal6S(b1-4)GlcNAc6S
# In short: as §1
# GalNAc(a1-3)Gal = biological target: GalNAc(a1-3)Gal
# In short: as §1
# GalNAc(a1-3)GalNAc = biological target: GalNAc(a1-3)GalNAc
# In short: as §1
# [8] = biological target: GalNAc(a1-3)GalNAc(b1-3)Gal(a1-4)Gal(b1-4)Glc
# In short: as §1
# [9] = biological target: GalNAc(a1-3)GalNAc(b1-3)Gal(a1-4)Gal(b1-4)GlcNAc
# In short: as §1
# GalNAc(b1-3)Gal = biological target: GalNAc(b1-3)Gal
# In short: as §1
# [10] = biological target: GalNAc(b1-3)Gal(a1-4)Gal(b1-4)GlcNAc
# In short: as §1
# [11] = biological target: GalNAc(b1-3)Gal(a1-4)Gal(b1-4)GlcNAc(b1-3)Gal(b1-4)Glc
# In short: as §1
# [12] = biological target: GalNAc(b1-3)Gal(a1-6)Gal(b1-4)Glc
# In short: as §1
# GalNAc(b1-3)GalNAc = biological target: GalNAc(b1-3)GalNAc
# In short: as §1
# GalNAc(b1-3)GlcNAc = biological target: GalNAc(b1-3)GlcNAc
# In short: as §1
# GalNAc(b1-4)Gal(b1-4)Glc = biological target: GalNAc(b1-4)Gal(b1-4)Glc
# In short: as §1
# GalNAc(b1-4)GlcNAc = biological target: GalNAc(b1-4)GlcNAc
# In short: as §1
binder,measurement,setting,value
B1,glycan array binding signal (z-score),[1],-0.047
same,glycan array binding signal (z-score),[2],-0.103
same,glycan array binding signal (z-score),[3],-0.086
same,glycan array binding signal (z-score),Gal(b1-4)GlcNAc6P,-0.051
same,glycan array binding signal (z-score),Gal(b1-6)Gal,11
same,glycan array binding signal (z-score),Gal3S(b1-3)GalNAc,-0.155
same,glycan array binding signal (z-score),Gal3S(b1-3)GlcNAc,-0.098
same,glycan array binding signal (z-score),[4],-0.028
same,glycan array binding signal (z-score),Gal3S(b1-4)Glc,-0.135
same,glycan array binding signal (z-score),Gal3S(b1-4)Glc6S,-0.095
same,glycan array binding signal (z-score),Gal3S(b1-4)GlcNAc,-0.061
same,glycan array binding signal (z-score),[5],-0.102
same,glycan array binding signal (z-score),[6],-0.115
same,glycan array binding signal (z-score),[7],-0.109
same,glycan array binding signal (z-score),Gal3S4S(b1-4)GlcNAc,-0.102
same,glycan array binding signal (z-score),Gal3S6S(b1-4)GlcNAc,-0.134
same,glycan array binding signal (z-score),Gal3S6S(b1-4)GlcNAc6S,-0.052
same,glycan array binding signal (z-score),Gal4S(b1-4)GlcNAc,-0.071
same,glycan array binding signal (z-score),Gal4S6S(b1-4)GlcNAc,-0.166
same,glycan array binding signal (z-score),Gal6P(b1-4)GlcNAc,-0.049
same,glycan array binding signal (z-score),Gal6S(b1-3)GlcNAc,-0.09
same,glycan array binding signal (z-score),Gal6S(b1-3)GlcNAc6S,-0.094
same,glycan array binding signal (z-score),Gal6S(b1-4)Glc,-0.097
same,glycan array binding signal (z-score),Gal6S(b1-4)Glc6S,-0.084
same,glycan array binding signal (z-score),Gal6S(b1-4)GlcNAc,-0.075
same,glycan array binding signal (z-score),Gal6S(b1-4)GlcNAc6S,-0.167
same,glycan array binding signal (z-score),GalNAc(a1-3)Gal,-0.066
same,glycan array binding signal (z-score),GalNAc(a1-3)GalNAc,-0.16
same,glycan array binding signal (z-score),[8],-0.142
same,glycan array binding signal (z-score),[9],-0.114
same,glycan array binding signal (z-score),GalNAc(b1-3)Gal,-0.116
same,glycan array binding signal (z-score),[10],-0.025
same,glycan array binding signal (z-score),[11],-0.139
same,glycan array binding signal (z-score),[12],-0.138
same,glycan array binding signal (z-score),GalNAc(b1-3)GalNAc,-0.045
same,glycan array binding signal (z-score),GalNAc(b1-3)GlcNAc,-0.056
same,glycan array binding signal (z-score),GalNAc(b1-4)Gal(b1-4)Glc,-0.058
same,glycan array binding signal (z-score),GalNAc(b1-4)GlcNAc,-0.036
